Key:
Assay type in all cases: cell-based
WIL2-S cell line [1] = experiment: Complement-dependent cytotoxicity (CDC), Sytox Green; conditions: 0.02-50 μg/mL, human serum, 2 hours
Protocol: (§1) Complement-Dependent Cytotoxicity (CDC): Normal human T cells (All Cells, Alameda, Calif.) or cancer cell lines (ATCC, Manassas, Va.) were labelledlabeled with 5 μM Sytox Green (Life Technologies, Grand Island, N.Y.), then bound with serial a serial dose titrations of anti-human NTB-A h20F3 antibody or PBD dimer ADCies (0.02-50 μg/mL) in RPMI1640 media+1020% human serum (Complement Technology, Tyler, TX or Solomon Park Research Laboratories, Kirkland, Wash. Cells were incubated at 37° C., 5% CO2 for 2 hours, and fluorescence from lysed cells was measured with an Envision plate reader (Perkin Elmer, Waltham, Mass.). Data was expressed as a percentage of maximum cell lysis determined with a positive control of 1% TritonX-100-treated cells (Sigma, ST. Louis, Mo.).
(§2) Three cell types were used for analysis: normal human T cells, WIL2-S cells, and Raji cells. Expression of relevant receptors on each cell type is found in Table 7 and is indicated as number of receptor per cell.

Raji cell line = experiment: as above; conditions: 0.02-50 μg/mL, human serum, 2 hours
Protocol: as §1, §2

Normal human T cells = experiment: ADCC, flow cytometry-based assay with NK effector cells; conditions: NK effector to target 10:1, 4 hours
Protocol: A flow cytometry-based assay was used to measure ADCC activity on normal human T cells. PKH2-labeled normal human T cell targets were bound with titrations of antibody (0.1 ng/mL-10 μg/mL) and then incubated with effector NK cells at an effector to target ratio of 10:1 for 4 hours at 37° C., 5% CO2. Viability was determined by 7-AAD incorporation as measured on the FACsCalibur flow cytometer (BD BioSciences, San Jose, Calif.).

WIL2-S cell line [2] = experiment: ADCC, chromium-51 release with NK effector cells; conditions: NK effector to target 10:1, 4 hours
Protocol: Antibody-Dependent Cellular Cytotoxicity (ADCC) Activity Assay: ADCC cytotoxic activity was measured by chromium-51 release in which effector natural killer (NK) cells kill (lyse) target cells via binding to the antibody or ADC on the target cells. WIL2-S cells were labeled with chromium-51, bound with antibody (0.1 ng/mL-10 μg/mL), and then incubated with NK cells at an effector to target ratio of 10:1 for 4 hours at 37° C., 5% CO2. Supernatant was removed to a filter plate and chromium-51 counts were measured with a TopCount (Perkin Elmer, Waltham, Mass.). Data was expressed as a percentage of maximum specific cell lysis determined with a positive control of 1% TritonX-100-treated cells (Sigma, St. Louis, Mo.).

B1: h20F3ec: humanized 20F3 HDLD antibody with cysteine at the 239 position (ec variant) (antibody)
heavy: QIQLVQSGSELKKPGASVKVSCKASGYTFTNYGMNWVRQAPGQDLKWMGWINTYSGEPRYADDFKGRFVFSLDKSVNTAYLQISSLKAEDTAVYYCARDYGRWYFDVWGQGTTVTVSS[sequence of human IgG1 constant region with changes omitted]
light: QIVLSQSPATLSLSPGERATMSCRASSSVSHMHWYQQKPGQAPRPWIYATSNLASGVPARFSGSGSGTDYTLTISSLEPEDFAVYYCQQWSSTPRTFGGGTKVEIKRTVAAPSVFIFPPSDEQLKSGTASVVCLLNNFYPREAKVQWKVDNALQSGNSQESVTEQDSKDSTYSLSSTLTLSKADYEKHKVYACEVTHQGLSSPVTKSFNRGEC
Q: Which results are given for B1?
A: CDC Maximum % Specific Cell Lysis (WIL2-S cell line [1]): 0.14 ± 0.2%; CDC Maximum % Specific Cell Lysis (Raji cell line): 3.3 ± 0.7%; ADCC Maximum % Specific Cell Lysis (Normal human T cells): 40 ± 0.6%; ADCC Maximum % Specific Cell Lysis (WIL2-S cell line [2]): 25 ± 2.4%

Reference: US20230218776A1, “ANTI-NTB-A ANTIBODIES AND RELATED COMPOSITIONS AND METHODS” (SEAGEN INC., priority 2015, published 2023)
